T1: murine CD22-ECD-His (mouse, UniProt P35329 22-708)
T1 construct: extracellular domain; Bought; also called mouse CD22; murine CD22 protein
T1 sequence (looked up): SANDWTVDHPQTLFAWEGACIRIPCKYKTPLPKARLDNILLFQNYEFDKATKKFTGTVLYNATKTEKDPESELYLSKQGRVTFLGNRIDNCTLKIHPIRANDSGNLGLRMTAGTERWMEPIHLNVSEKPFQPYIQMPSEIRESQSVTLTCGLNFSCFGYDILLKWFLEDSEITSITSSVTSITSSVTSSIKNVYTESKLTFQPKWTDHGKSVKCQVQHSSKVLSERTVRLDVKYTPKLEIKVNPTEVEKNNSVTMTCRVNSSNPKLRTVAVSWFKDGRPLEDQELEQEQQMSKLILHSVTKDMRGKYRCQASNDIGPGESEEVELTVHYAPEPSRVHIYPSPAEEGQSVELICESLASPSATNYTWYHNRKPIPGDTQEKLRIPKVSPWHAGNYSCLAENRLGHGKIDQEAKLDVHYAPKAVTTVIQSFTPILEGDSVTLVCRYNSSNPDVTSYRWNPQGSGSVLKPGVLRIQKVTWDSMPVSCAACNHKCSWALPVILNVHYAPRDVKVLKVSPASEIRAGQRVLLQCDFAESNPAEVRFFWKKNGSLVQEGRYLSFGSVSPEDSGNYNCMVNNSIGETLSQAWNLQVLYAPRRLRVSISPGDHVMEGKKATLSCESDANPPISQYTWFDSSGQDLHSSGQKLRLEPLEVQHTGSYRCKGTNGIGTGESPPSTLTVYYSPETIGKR

T2: human CD22-ECD-His (human, UniProt P20273 20-687)
T2 construct: Made in HEK293E, purified on nickel column; also called hCD22-ECD-His; recombinant human CD22-ECD His; not shown: His tag
T2 sequence: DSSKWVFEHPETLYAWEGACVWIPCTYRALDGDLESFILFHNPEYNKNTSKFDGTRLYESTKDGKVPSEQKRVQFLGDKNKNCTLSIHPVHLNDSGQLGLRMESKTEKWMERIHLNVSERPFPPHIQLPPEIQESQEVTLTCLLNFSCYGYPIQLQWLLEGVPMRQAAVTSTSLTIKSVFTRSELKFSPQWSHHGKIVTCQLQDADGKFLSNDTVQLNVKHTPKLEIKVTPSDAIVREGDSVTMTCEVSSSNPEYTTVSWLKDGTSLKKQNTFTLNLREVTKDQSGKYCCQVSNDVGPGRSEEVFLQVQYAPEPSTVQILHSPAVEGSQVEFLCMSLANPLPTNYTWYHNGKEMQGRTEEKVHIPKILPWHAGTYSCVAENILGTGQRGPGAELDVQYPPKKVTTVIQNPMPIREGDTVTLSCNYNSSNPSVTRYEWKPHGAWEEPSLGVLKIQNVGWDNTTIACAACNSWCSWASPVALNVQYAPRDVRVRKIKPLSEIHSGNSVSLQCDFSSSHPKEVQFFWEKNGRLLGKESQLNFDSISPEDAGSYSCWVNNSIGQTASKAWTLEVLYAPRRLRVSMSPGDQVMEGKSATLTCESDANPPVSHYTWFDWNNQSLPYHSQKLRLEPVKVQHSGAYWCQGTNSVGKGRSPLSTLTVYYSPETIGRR


Key:
murine CD22-ECD-His [1] = molecular target: T1, murine CD22-ECD-His; assay: ELISA, coated mouse CD22, antibody 10 nM
Procedure: (§1) The plate was sealed with plastic film and incubated overnight at 4° C., the plate was washed 2 times with PBS the next day, and then a blocking solution [PBS+2% (w/w) BSA] was added for blocking at room temperature for 2 hours. […] After incubation at 37° C. for 2 hours, the plate was washed 3 times with PBS. HRP (horseradish peroxidase)-labeled secondary antibody (purchased from Sigma, catalog number: A0170) was added, and incubated at 37° C. for 2 hours, and the plate was washed 5 times with PBS. TMB substrate was added at 50 μl/well, and incubated at room temperature for 30 minutes, then a stop solution (1.0 N HCl) was added at 50 μl/well.

murine CD22-ECD-His [2] = molecular target: T1, murine CD22-ECD-His; assay: ELISA, coated mouse CD22, antibody 100 nM
Procedure: as §1

murine CD22-ECD-His [3] = molecular target: T1, murine CD22-ECD-His; assay: ELISA, coated mouse CD22, antibody 0.10 nM
Procedure: as §1

human CD22-ECD-His [4] = molecular target: T2, human CD22-ECD-His; assay: ELISA, coated hCD22-ECD-His, antibody 10 nM
Procedure: as §1

murine CD22-ECD-His [5] = molecular target: T1, murine CD22-ECD-His; assay: ELISA, coated mouse CD22, antibody 0.001 nM
Procedure: as §1

human CD22-ECD-His [6] = molecular target: T2, human CD22-ECD-His; assay: ELISA, coated hCD22-ECD-His, antibody 100 nM
Procedure: as §1

murine CD22-ECD-His [7] = molecular target: T1, murine CD22-ECD-His; assay: ELISA, coated mouse CD22, antibody 0.0001 nM
Procedure: as §1

human CD22-ECD-His [8] = molecular target: T2, human CD22-ECD-His; assay: ELISA, coated hCD22-ECD-His, antibody 0.01 nM
Procedure: as §1

human CD22-ECD-His [9] = molecular target: T2, human CD22-ECD-His; assay: ELISA, coated hCD22-ECD-His, antibody 0.10 nM
Procedure: as §1

murine CD22-ECD-His [10] = molecular target: T1, murine CD22-ECD-His; assay: ELISA, coated mouse CD22, antibody 0.00001 nM
Procedure: as §1

human CD22-ECD-His [11] = molecular target: T2, human CD22-ECD-His; assay: ELISA, coated hCD22-ECD-His, antibody 0.001 nM
Procedure: as §1

human CD22-ECD-His [12] = molecular target: T2, human CD22-ECD-His; assay: ELISA, coated hCD22-ECD-His, antibody 0.00001 nM
Procedure: as §1

human CD22-ECD-His [13] = molecular target: T2, human CD22-ECD-His; assay: ELISA, antibody coated 2 ug/mL, hCD22-ECD-His titrated

| OD450 (murine CD22-ECD-His [1]) | OD450 (murine CD22-ECD-His [2]) | OD450 (murine CD22-ECD-His [3]) | OD450 (human CD22-ECD-His [4]) | OD450 (murine CD22-ECD-His [5]) | OD450 (human CD22-ECD-His [6]) | OD450 (murine CD22-ECD-His [7]) | OD450 (human CD22-ECD-His [8]) | OD450 (human CD22-ECD-His [9]) | OD450 (murine CD22-ECD-His [10]) | OD450 (human CD22-ECD-His [11]) | OD450 (human CD22-ECD-His [12]) | EC80 (human CD22-ECD-His [13]) | Binder |
| --- | --- | --- | --- | --- | --- | --- | --- | --- | --- | --- | --- | --- | --- |
| 0.06 | 0.1 | 0.06 | 2.82 | 0.06 | 3.33 | 0.06 | 1.21 | 2.66 | 0.06 | 0.29 | 0.1 | 4 nM | S002-NB150-152n VHH-Fc (Fc fusion, VHH cloned into vector BI3.4-huIgG1 (hinge and human IgG1 Fc), made in HEK293E) EVQVVESGGGLVQTGGSLRLSCAASGRPFDWLTVGWFRQAPGKEREFVAAISQSGGRIFYSDSVKGRFTISRDNAKNTAFLQMNSLKPEDTAVYSCAAQMRGYSRAAYPDEYDYWGQGTQVTVSS[human IgG1 Fc with changes cut from this listing] |
| 0.08 | 0.15 | 0.06 | 1.71 | 0.07 | 2.01 | 0.07 | 0.58 | 1.28 | 0.07 | 0.33 | 0.25 | 32.3 nM | S002-NB151-14 VHH-Fc (Fc fusion, VHH cloned into vector BI3.4-huIgG1 (hinge and human IgG1 Fc), made in HEK293E; also called 5002-NB151-14) QVQLVESGGGLVQAGGSLRLSCTTSGGTLSRITMGWFRQAPGKEREFVAAIKWGGSSTPYSDSVKGRFTISRDNAKNTVYLQMDRLVPEDTAVYYCAGGLRGPYSDSVTSSVQYNYWGQGTQVTVSS[human IgG1 Fc with changes cut from this listing] |

Source: patent US20230416360A1 (SIMCERE ZAIMING PHARMACEUTICAL, published 2023)
